In all, about 410,000 compounds went through this assay and about 5,000 (1.2%) were called active. The inconclusive results got no clear call from the source; some entries with a clear call stand among them for comparison. The call rests on the fitted dose curve; in most records, active means well fitted inhibition curve with a large enough effect; inconclusive means small, poorly fitted or top-dose-only effect; inactive means no such curve, though single readings can be large or run the other way. Potencies of inconclusive entries are doubtful fits and often do not repeat.
Assay: qHTS for Inhibitors of TGF-b; further: nearly all actives have a fitted effect of over 65% in size
Settings: HepG2 CAGA-GFP TGF-b/SMAD3 reporter, GFP fluorescence, 18 h, TGF-beta stimulated, 500 pg/mL final; series mostly up to 46.1 µM
In short: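 Per well, imaged GFP fluorescence of HEPG2 CAGA-GFP cells gives the signal; cells get compound, then TGF-beta (500 pg/mL final), 18 h at 37 degrees C; %Activity versus -TGF-beta and +DMSO controls.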
Potency means the concentration at half of the fitted maximal effect; tags describe the fitted curve by direction and shape.

Structure (SMILES) | Potency
CCn1c(=O)c2cc(C(=O)NCCCN(C)Cc3ccccc3)sc2c2ccccc21 | inconclusive: 35.5 µM [inhibitor, single point]
COc1ccc2oc(C)c(C(=O)c3ccc(C)cc3)c2c1 | inconclusive: 20 µM [inhibitor, single point]
CC1CCCN(S(=O)(=O)c2ccc(NC(=O)CN3CCN(C)CC3)cc2)C1 (stereo unspecified) | inactive
CCn1c(SCC(=O)N2CCN(c3ccccc3)CC2)nnc1-c1ccoc1C | inactive
CC(=O)c1cc2c(=O)c3ccccc3oc2nc1C | inactive
CC1C/C(=N/Nc2nc3ccccc3[nH]2)CC(C)(C)C1 (stereo unspecified) | inconclusive: 8.91 µM [inhibitor, partial curve, poor fit]
CCCOc1ccc(F)cc1-c1cc(C(=O)Nc2cc(OC)c(OC)c(OC)c2)[nH]n1 | inconclusive: 35.5 µM [inhibitor, single point]
O=[N+]([O-])c1ccc(N2CCN(c3ccc(O)cc3)CC2)c(Cl)c1 | inconclusive: 35.5 µM [inhibitor, single point]
CCOc1ccc(-n2c(SCC(=O)Nc3cc(C)on3)nnc2-c2c[nH]c3ccccc23)cc1 | inactive
Oc1ccc2ccccc2c1C=NNc1ccccn1 | inconclusive: 0.708 µM [inhibitor, full curve, poor fit]
Cc1ccc2nc(N3CCN(C(=O)c4ccccc4F)CC3)c(C#N)cc2c1 | inconclusive: 17.8 µM [inhibitor, partial curve, poor fit]
COc1cccc(-c2[nH]nc3c2C(c2ccc(C)o2)C(C#N)=C(N)O3)c1 (stereo unspecified) | inactive
CCN(CC)c1nc(=S)nc(NC(C)(C)C)[nH]1 | inconclusive: 3.16 µM [inhibitor, full curve, poor fit]
CCN(c1ccccc1)S(=O)(=O)c1ccc(C(=O)NC2CCN(Cc3ccccc3)CC2)cc1 | inconclusive: 2.24 µM [inhibitor, full curve, poor fit]
O=C(NCc1ccccc1Cl)c1ccc(CSCc2cccc(F)c2)o1 | inconclusive: 25.1 µM [inhibitor, single point]
C=CCn1c(SCc2c(C)noc2C)nc2sc(C)c(C)c2c1=O | inactive
CN(Cc1cccc(Cl)c1Cl)c1ccc(S(=O)(=O)N2CCCCC2)cc1[N+](=O)[O-] | inconclusive: 0.447 µM [inhibitor, partial curve, poor fit]
O=C(NNc1nc(-c2ccccc2)c2cc(Br)ccc2n1)c1ccc(S(=O)(=O)N2CCOCC2)cc1 | inactive
Cc1ccc2nc(/C(C#N)=C\c3ccc([N+](=O)[O-])o3)[nH]c2c1 | inconclusive: 0.631 µM [inhibitor, full curve]
CCCC(C(=O)NCCC(C)C)N(Cc1ccccc1Cl)C(=O)c1snc(C(N)=O)c1N (stereo unspecified) | inconclusive: 35.5 µM [inhibitor, single point]
CC1=C(c2ccc(Cl)cc2)S(=O)(=O)N=C1N1CCN(c2cccc(C(F)(F)F)c2)CC1 | inconclusive: 0.794 µM [inhibitor, full curve, poor fit]
CCOC(=O)/C=C/C(=O)OCC(=O)Nc1ccc([N+](=O)[O-])cc1 | inconclusive: 35.5 µM [inhibitor, single point]
O=[N+]([O-])c1ccc(N/N=C/c2sc(N3CCOCC3)nc2-c2ccccc2)c(S(=O)(=O)Nc2ccc(Cl)cc2)c1 | inconclusive: 2.24 µM [inhibitor, partial curve, poor fit]
CN(C)c1ccc(CNC(=O)C2(C)Cc3c(-c4cccc(C(N)=O)c4)ccnc3O2)cc1 (stereo unspecified) | inactive

Structure (SMILES) | Potency
COc1ccc(CCNC(=O)CNC(=O)c2ccc(Br)o2)cc1OC | inconclusive: 1.41 µM [inhibitor, single point]
COc1ccc(-c2cc(C(F)(F)F)n3nc(C(=O)Nc4cccc(C(F)(F)F)c4)c(Br)c3n2)cc1 | inconclusive: 12.6 µM [inhibitor, single point]
C=C(C)C(=O)Oc1ccc(N2C(=O)CCC2=O)cc1 | inconclusive: 35.5 µM [inhibitor, single point]
CC1(C)CC(NC(=O)C2CCCCC2)CC(C)(C)N1 | inactive
COC(=O)c1cnc(N2CCN(c3ccccc3OC)CC2)c2ccccc12 | inconclusive: 6.31 µM [inhibitor, full curve]
CCOC(=O)c1sc2ccccc2c1S(=O)(=O)NCc1ccc(F)cc1 | inconclusive: 11.2 µM [inhibitor, single point]
COc1ccccc1OCc1ccc(C(=O)c2ccccc2)cc1 | inactive
COc1ccc(C(=O)NCCSc2ccccc2)cc1 | inactive
Cc1ccccc1[C@@]1(C)ON(c2ccccc2C(F)(F)F)C1=O | inconclusive: 11.2 µM [inhibitor, partial curve, poor fit]
Cc1occc1C(=O)N/N=C/c1ccc(OCc2ccccc2)cc1 | inconclusive: 22.4 µM [inhibitor, single point]
C=C(C)[C@@H]1CCC2(C(=O)O)CC[C@]3(C)[C@H](CC[C@@H]4[C@@]5(C)CCC(=O)C(C)(C)[C@@H]5CC[C@]43C)[C@@H]12 (stereo partly specified) | inactive
COc1cc(SC)ccc1C(=O)Nc1nc2ccccc2[nH]1 | inactive
CCOc1ccc(NC(=O)c2ccc(CSc3nnnn3C)cc2)cc1 | inconclusive: 3.55 µM [inhibitor, partial curve, poor fit]
Cc1onc(-c2ccccc2Cl)c1C(=O)Nc1ccc(S(=O)(=O)N2CCCC2)cc1 | inconclusive: 35.5 µM [inhibitor, single point]
COc1ccccc1CNC(=O)CCC1N=C2c3ccccc3N=C(SCc3ccccc3Cl)N2C1=O (stereo unspecified) | inconclusive: 0.251 µM [inhibitor, full curve, poor fit]
N#C/C(=N\Nc1ccccc1)C(=N)N1CCCCC1 | inconclusive: 2.82 µM [inhibitor, single point]
CCC(C(=O)Nc1cccc(C(F)(F)F)c1)c1ccccc1 (stereo unspecified) | inconclusive: 35.5 µM [inhibitor, single point]
COc1ccc2c(c1)CCCN2C(N)=O | inactive
CCOc1ccccc1CNC(=O)C1CCN(S(=O)(=O)c2c(C)noc2/C=C/c2ccc(C)cc2)CC1 | inconclusive: 1 µM [inhibitor, full curve, poor fit]
CCOc1ccc(-n2c(=O)c3sccc3n(CC(=O)NC3CCCCC3)c2=O)cc1 | inactive
Fc1ccccc1CNc1ccc(Cl)c(Cl)c1 | inconclusive: 7.08 µM [inhibitor, full curve, poor fit]
O=C1C(=O)c2ccccc2C(O)=C1CC=C(Cl)Cl | inconclusive: 35.5 µM [inhibitor, single point]
O=C1CC(/C=C/c2cccnc2)=Nc2ccccc2N1 | inactive
CCOC(=O)c1ccc(NC(=O)CSc2nccn2-c2ccc(OCC)cc2)cc1 | inconclusive: 7.94 µM [inhibitor, partial curve]

Structure (SMILES) | Potency
Clc1ccc(N=c2ssnc2Cl)nc1 | inactive
CCn1c(O)c(/C=C/C=C/C=Nc2ccccc2)sc1=S | inactive
O=C1CCN(S(=O)(=O)c2ccccc2)C2CCCCC12 (stereo unspecified) | inconclusive: 3.55 µM [inhibitor, full curve, poor fit]
CC(=O)COc1cccc2ccc(/C=C/c3ccc(Br)s3)nc12 | inconclusive: 31.6 µM [inhibitor, single point]
OC(c1ccc(F)cc1)c1nc(-c2csc3ccccc23)cs1 (stereo unspecified) | inconclusive: 35.5 µM [inhibitor, single point]
Cc1cccc(-c2nc(CSCC(=O)N3CCN(c4ccccc4)CC3)c(C)o2)c1 | active: 11.2 µM
Nc1nc2ccccc2n1CCOc1ccccc1Cl | inconclusive: 20 µM [inhibitor, single point]
O=C(c1ccc2oc(CCCc3ccccc3)nc2c1)N1CCCC1 | inactive
COc1ccc(Nc2nc(N3CCCC3)nc3ccccc23)c(OC)c1 | active: 10 µM
COc1ccc(-c2cc(C)no2)cc1S(=O)(=O)N1CCCN(Cc2ccc(F)cc2)C1 | inconclusive: 35.5 µM [inhibitor, single point]
COc1ccc(-n2nc(C(=O)NCC(=O)N3CCCCCC3)c3ccccc3c2=O)cc1 | inactive
COc1cc(N)c(Cl)cc1C(=O)NC1CCN(Cc2ccccc2)CC1 | inactive
CC(O)(c1ccc(F)c(F)c1)c1nc(-c2cc3ccccc3o2)cs1 (stereo unspecified) | inconclusive: 15.8 µM [inhibitor, single point]
COc1ccccc1N1CCN(c2ccc(-c3nc(-c4ccccc4C)no3)cc2[N+](=O)[O-])CC1 | inactive
COc1cccc(/C=C2\SC(=S)N(CCCC(=O)N3CCCCC3CCO)C2=O)c1 (stereo unspecified) | inconclusive: 35.5 µM [inhibitor, single point]
O=C(CSc1nc2ncc(Br)cc2[nH]1)c1cccc([N+](=O)[O-])c1 | inactive
O=C(NCc1cccnc1)/C(=C\c1ccc(-c2ccc(Cl)c(Cl)c2)o1)S(=O)(=O)c1ccccc1 | active: 4.47 µM
O=C(CCN1C(=O)/C(=C/c2ccco2)SC1=S)Nc1ccc(O)cc1C(=O)O | inactive
COc1ccc2cc3c(N)c(C(=O)NCc4ccco4)sc3nc2c1 | inactive
CCc1ccc(N2CN(CCc3ccccc3)CNC2=S)cc1 | inconclusive: 35.5 µM [inhibitor, single point]
COc1cc2c(-c3ccc(O)cc3)nc3c(c(C)nn3-c3ccccc3)c2cc1OC | inactive
Cc1cccc(N(C)c2nc3ccc(C)cc3n3cnnc23)c1 | inconclusive: 35.5 µM [inhibitor, single point]
CCCCOc1ccccc1C(=O)Nc1nonc1-c1ccccc1 | inconclusive: 22.4 µM [inhibitor, single point]
